Experimental data taken from the supplement of paper PMC11876631.
± gives the standard deviation of the averaged measurements. Laboratory Escherichia coli strains with one amino-acid change in an essential protein, pooled on minimal glucose agar with carbenicillin or gentamicin at twice the control MIC (plus kanamycin and chloramphenicol for the plasmids), 48 h. Fold change of barcode share against drug-free plates; higher = less susceptible. Active = above 20 in both replicates (the paper's putatively resistant). '<' = one read or none on drug, '>' = one read or none on a drug-free plate. Shares are relative, so most strains fall below 1 when a few take over. Listed are strains with at least 15 reads on both drug-free plates, and hits; most hits rest on fewer reference reads. Replicate rank correlation about 0.5. Edits are read from barcodes.

B1: aspS F393Q (protein)
chain: MRTEYCGQLRLSHVGQQVTLCGWVNRRRDLGSLIFIDMRDREGIVQVFFDPDRADALKLASELRNEFCIQVTGTVRARDEKNINRDMATGEIEVLASSLTIINRADVLPLDSNHVNTEEARLKYRYLDLRRPEMAQRLKTRAKITSLVRRFMDDHGFLDIETPMLTKATPEGARDYLVPSRVHKGKFYALPQSPQLFKQLLMMSGFDRYYQIVKCFRDEDLRADRQPEFTQIDVETSFMTAPQVREVMEALVRHLWLEVKGVDLGDFPVMTFAEAERRYGSDKPDLRNPMELTDVADLLKSVEFAVFAGPANDPKGRVAALRVPGGASLTRKQIDEYGNFVKIYGAKGLAYIKVNERAKGLEGINSPVAKFLNAEIIEDILDRTAAQDGDMIQFGADNKKIVADAMGALRLKVGKDLGLTDESKWAPLWVIDFPMFEDDGEGGLTAMHHPFTSPKDMTAAELKAAPENAVANAYDMVINGYEVGGGSVRIHNGDMQQTVFGILGINEEEQREKFGFLLDALKYGTPPHAGLAFGLDRLTMLLTGTDNIRDVIAFPKTTAAACLMTEAPSFANPTALAELSIQVVKKAENN
B2: pabB L57A (protein)
chain: MKTLSPAVITLLWRQDAAEFYFSRLSHLPWAMLLHSGYADHPYSRFDIVVAEPICTATTFGKETVVSESEKRTTTTDDPLQVLQQVLDRADIRPTHNEDLPFQGGALGLFGYDLGRRFESLPEIAEQDIVLPDMAVGIYDWALIVDHQRHTVSLLSHNDVNARRAWLESQQFSPQEDFTLTSDWQSNMTREQYGEKFRQVQEYLHSGDCYQVNLAQRFHATYSGDEWQAFLQLNQANRAPFSAFLRLEQGAILSLSPERFILCDNSEIQTRPIKGTLPRLPDPQEDSKQAVKLANSAKDRAENLMIVDLMRNDIGRVAVAGSVKVPELFVVEPFPAVHHLVSTITAQLPEQLHASDLLRAAFPGGSITGAPKVRAMEIIDELEPQRRNAWCGSIGYLSFCGNMDTSITIRTLTAINGQIFCSAGGGIVADSQEEAEYQETFDKVNRILKQLEK
B3: pabB V341A (protein)
chain: MKTLSPAVITLLWRQDAAEFYFSRLSHLPWAMLLHSGYADHPYSRFDIVVAEPICTLTTFGKETVVSESEKRTTTTDDPLQVLQQVLDRADIRPTHNEDLPFQGGALGLFGYDLGRRFESLPEIAEQDIVLPDMAVGIYDWALIVDHQRHTVSLLSHNDVNARRAWLESQQFSPQEDFTLTSDWQSNMTREQYGEKFRQVQEYLHSGDCYQVNLAQRFHATYSGDEWQAFLQLNQANRAPFSAFLRLEQGAILSLSPERFILCDNSEIQTRPIKGTLPRLPDPQEDSKQAVKLANSAKDRAENLMIVDLMRNDIGRVAVAGSVKVPELFVVEPFPAVHHLASTITAQLPEQLHASDLLRAAFPGGSITGAPKVRAMEIIDELEPQRRNAWCGSIGYLSFCGNMDTSITIRTLTAINGQIFCSAGGGIVADSQEEAEYQETFDKVNRILKQLEK
B4: pabB L57Q (protein)
chain: MKTLSPAVITLLWRQDAAEFYFSRLSHLPWAMLLHSGYADHPYSRFDIVVAEPICTQTTFGKETVVSESEKRTTTTDDPLQVLQQVLDRADIRPTHNEDLPFQGGALGLFGYDLGRRFESLPEIAEQDIVLPDMAVGIYDWALIVDHQRHTVSLLSHNDVNARRAWLESQQFSPQEDFTLTSDWQSNMTREQYGEKFRQVQEYLHSGDCYQVNLAQRFHATYSGDEWQAFLQLNQANRAPFSAFLRLEQGAILSLSPERFILCDNSEIQTRPIKGTLPRLPDPQEDSKQAVKLANSAKDRAENLMIVDLMRNDIGRVAVAGSVKVPELFVVEPFPAVHHLVSTITAQLPEQLHASDLLRAAFPGGSITGAPKVRAMEIIDELEPQRRNAWCGSIGYLSFCGNMDTSITIRTLTAINGQIFCSAGGGIVADSQEEAEYQETFDKVNRILKQLEK
B5: pabB L57W (protein)
chain: MKTLSPAVITLLWRQDAAEFYFSRLSHLPWAMLLHSGYADHPYSRFDIVVAEPICTWTTFGKETVVSESEKRTTTTDDPLQVLQQVLDRADIRPTHNEDLPFQGGALGLFGYDLGRRFESLPEIAEQDIVLPDMAVGIYDWALIVDHQRHTVSLLSHNDVNARRAWLESQQFSPQEDFTLTSDWQSNMTREQYGEKFRQVQEYLHSGDCYQVNLAQRFHATYSGDEWQAFLQLNQANRAPFSAFLRLEQGAILSLSPERFILCDNSEIQTRPIKGTLPRLPDPQEDSKQAVKLANSAKDRAENLMIVDLMRNDIGRVAVAGSVKVPELFVVEPFPAVHHLVSTITAQLPEQLHASDLLRAAFPGGSITGAPKVRAMEIIDELEPQRRNAWCGSIGYLSFCGNMDTSITIRTLTAINGQIFCSAGGGIVADSQEEAEYQETFDKVNRILKQLEK
B6: obgE L154A (protein)
chain: MKFVDEASILVVAGDGGNGCVSFRREKYIPKGGPDGGDGGDGGDVWMEADENLNTLIDYRFEKSFRAERGQNGASRDCTGKRGKDVTIKVPVGTRVIDQGTGETMGDMTKHGQRLLVAKGGWHGLGNTRFKSSVNRTPRQKTNGTPGDKRELLAELMLLADVGMLGMPNAGKSTFIRAVSAAKPKVADYPFTTLVPSLGVVRMDNEKSFVVADIPGLIEGAAEGAGLGIRFLKHLERCRVLLHLIDIDPIDGTDPVENARIIISELEKYSQDLATKPRWLVFNKIDLLDKVEAEEKAKAIAEALGWEDKYYLISAASGLGVKDLCWDVMTFIIENPVVQAEEAKQPEKVEFMWDDYHRQQLEEIAEEDDEDWDDDWDEDDEEGVEFIYKR
B7: orn L93A (protein)
chain: MSANENNLIWIDLEMTGLDPERDRIIEIATLVTDANLNILAEGPTIAVHQSDEQLALMDDWNVRTHTASGLVERVKASTMGDREAELATLEFAKQWVPAGKSPICGNSIGQDRRFLFKYMPELEAYFHYRYLDVSTLKELARRWKPEILDGFTKQGTHQAMDDIRESVAELAYYREHFIKL
B8: orn L171A (protein)
chain: MSANENNLIWIDLEMTGLDPERDRIIEIATLVTDANLNILAEGPTIAVHQSDEQLALMDDWNVRTHTASGLVERVKASTMGDREAELATLEFLKQWVPAGKSPICGNSIGQDRRFLFKYMPELEAYFHYRYLDVSTLKELARRWKPEILDGFTKQGTHQAMDDIRESVAEAAYYREHFIKL
B9: orn L93W (protein)
chain: MSANENNLIWIDLEMTGLDPERDRIIEIATLVTDANLNILAEGPTIAVHQSDEQLALMDDWNVRTHTASGLVERVKASTMGDREAELATLEFWKQWVPAGKSPICGNSIGQDRRFLFKYMPELEAYFHYRYLDVSTLKELARRWKPEILDGFTKQGTHQAMDDIRESVAELAYYREHFIKL
B10: orn I164A (protein)
chain: MSANENNLIWIDLEMTGLDPERDRIIEIATLVTDANLNILAEGPTIAVHQSDEQLALMDDWNVRTHTASGLVERVKASTMGDREAELATLEFLKQWVPAGKSPICGNSIGQDRRFLFKYMPELEAYFHYRYLDVSTLKELARRWKPEILDGFTKQGTHQAMDDARESVAELAYYREHFIKL
B11: orn F115W (protein)
chain: MSANENNLIWIDLEMTGLDPERDRIIEIATLVTDANLNILAEGPTIAVHQSDEQLALMDDWNVRTHTASGLVERVKASTMGDREAELATLEFLKQWVPAGKSPICGNSIGQDRRWLFKYMPELEAYFHYRYLDVSTLKELARRWKPEILDGFTKQGTHQAMDDIRESVAELAYYREHFIKL
B12: orn L171W (protein)
chain: MSANENNLIWIDLEMTGLDPERDRIIEIATLVTDANLNILAEGPTIAVHQSDEQLALMDDWNVRTHTASGLVERVKASTMGDREAELATLEFLKQWVPAGKSPICGNSIGQDRRFLFKYMPELEAYFHYRYLDVSTLKELARRWKPEILDGFTKQGTHQAMDDIRESVAEWAYYREHFIKL
B13: orn L171Q (protein)
chain: MSANENNLIWIDLEMTGLDPERDRIIEIATLVTDANLNILAEGPTIAVHQSDEQLALMDDWNVRTHTASGLVERVKASTMGDREAELATLEFLKQWVPAGKSPICGNSIGQDRRFLFKYMPELEAYFHYRYLDVSTLKELARRWKPEILDGFTKQGTHQAMDDIRESVAEQAYYREHFIKL
B14: orn L93D (protein)
chain: MSANENNLIWIDLEMTGLDPERDRIIEIATLVTDANLNILAEGPTIAVHQSDEQLALMDDWNVRTHTASGLVERVKASTMGDREAELATLEFDKQWVPAGKSPICGNSIGQDRRFLFKYMPELEAYFHYRYLDVSTLKELARRWKPEILDGFTKQGTHQAMDDIRESVAELAYYREHFIKL
B15: orn L171P (protein)
chain: MSANENNLIWIDLEMTGLDPERDRIIEIATLVTDANLNILAEGPTIAVHQSDEQLALMDDWNVRTHTASGLVERVKASTMGDREAELATLEFLKQWVPAGKSPICGNSIGQDRRFLFKYMPELEAYFHYRYLDVSTLKELARRWKPEILDGFTKQGTHQAMDDIRESVAEPAYYREHFIKL

These proteins were tested against Escherichia coli (laboratory strain) (assay: barcode share on antibiotic plates over drug-free plates; higher = less susceptible). Conditions: antibiotic: carbenicillin; 2× MIC (3.1 µg/mL).
Method: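 A pool of E. coli strains, each edited to carry one amino-acid change in an essential protein, was grown for 48 h on minimal glucose agar with or without antibiotic; strain barcodes were sequenced; mean of two replicates.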

Row | Protein | fold change of barcode share
1 | B1 | 0.237 ± 0.093
2 | B2 | 0.845 ± 0.39
3 | B3 | 0.619 ± 0.32
4 | B4 | 1.04 ± 0.6
5 | B5 | 0.89 ± 0.12
6 | B6 | 0.303 ± 0.047
7 | B7 | 0.211 ± 0.069
8 | B8 | 0.45 ± 0.3
9 | B9 | 0.256 ± 0.052
10 | B10 | 0.375 ± 0.033
11 | B11 | 0.322 ± 0.093
12 | B12 | 0.433 ± 0.14
13 | B13 | 0.36 ± 0.032
14 | B14 | 0.214 ± 0.036
15 | B15 | 0.339 ± 0.19

Same assay, conditions: antibiotic: gentamicin; 2× MIC (MIC 0.45 µg/mL)

Row | Protein | fold change of barcode share
16 | B2 | 0.0278 ± 0.029
17 | B3 | 0.0101 ± 0.00035
18 | B4 | < 0.0208
19 | B5 | < 0.019
20 | B6 | 0.035 ± 0.048
21 | B7 | 0.0115 ± 0.0063
22 | B8 | 0.00462 ± 0.0012
23 | B9 | < 0.00519
24 | B10 | 0.0151 ± 0.0052
25 | B11 | < 0.00276
26 | B12 | < 0.0138
27 | B13 | 0.00619 ± 0.0045
28 | B15 | < 0.00457
